According to US20250333467A1 (TECTONIC OPERATING, published 2025):

T1: rat RXFP1 (rat, UniProt Q6R6I6 1-758)
T1 sequence (looked up): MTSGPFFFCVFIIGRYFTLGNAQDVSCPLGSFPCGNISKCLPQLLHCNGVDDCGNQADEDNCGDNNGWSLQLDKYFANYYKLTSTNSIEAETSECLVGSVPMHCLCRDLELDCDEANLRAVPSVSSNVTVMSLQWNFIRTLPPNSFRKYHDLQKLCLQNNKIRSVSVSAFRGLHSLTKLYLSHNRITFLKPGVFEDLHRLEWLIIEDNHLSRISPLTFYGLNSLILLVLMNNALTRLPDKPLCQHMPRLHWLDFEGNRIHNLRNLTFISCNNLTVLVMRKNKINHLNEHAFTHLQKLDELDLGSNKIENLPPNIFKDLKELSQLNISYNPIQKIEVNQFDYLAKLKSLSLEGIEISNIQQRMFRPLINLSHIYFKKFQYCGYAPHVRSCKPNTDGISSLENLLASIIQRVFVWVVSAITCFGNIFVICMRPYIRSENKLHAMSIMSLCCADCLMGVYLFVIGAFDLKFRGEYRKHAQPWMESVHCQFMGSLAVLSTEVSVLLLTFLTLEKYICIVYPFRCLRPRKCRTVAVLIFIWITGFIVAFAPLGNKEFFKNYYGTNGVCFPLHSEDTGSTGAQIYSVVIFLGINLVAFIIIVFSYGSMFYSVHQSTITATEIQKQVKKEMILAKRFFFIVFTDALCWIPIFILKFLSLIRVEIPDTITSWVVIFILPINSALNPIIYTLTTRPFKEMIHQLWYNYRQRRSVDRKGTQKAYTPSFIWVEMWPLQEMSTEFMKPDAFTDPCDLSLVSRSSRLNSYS

T2: human RXFP1 (human, UniProt Q9HBX9 1-757)
T2 sequence (looked up): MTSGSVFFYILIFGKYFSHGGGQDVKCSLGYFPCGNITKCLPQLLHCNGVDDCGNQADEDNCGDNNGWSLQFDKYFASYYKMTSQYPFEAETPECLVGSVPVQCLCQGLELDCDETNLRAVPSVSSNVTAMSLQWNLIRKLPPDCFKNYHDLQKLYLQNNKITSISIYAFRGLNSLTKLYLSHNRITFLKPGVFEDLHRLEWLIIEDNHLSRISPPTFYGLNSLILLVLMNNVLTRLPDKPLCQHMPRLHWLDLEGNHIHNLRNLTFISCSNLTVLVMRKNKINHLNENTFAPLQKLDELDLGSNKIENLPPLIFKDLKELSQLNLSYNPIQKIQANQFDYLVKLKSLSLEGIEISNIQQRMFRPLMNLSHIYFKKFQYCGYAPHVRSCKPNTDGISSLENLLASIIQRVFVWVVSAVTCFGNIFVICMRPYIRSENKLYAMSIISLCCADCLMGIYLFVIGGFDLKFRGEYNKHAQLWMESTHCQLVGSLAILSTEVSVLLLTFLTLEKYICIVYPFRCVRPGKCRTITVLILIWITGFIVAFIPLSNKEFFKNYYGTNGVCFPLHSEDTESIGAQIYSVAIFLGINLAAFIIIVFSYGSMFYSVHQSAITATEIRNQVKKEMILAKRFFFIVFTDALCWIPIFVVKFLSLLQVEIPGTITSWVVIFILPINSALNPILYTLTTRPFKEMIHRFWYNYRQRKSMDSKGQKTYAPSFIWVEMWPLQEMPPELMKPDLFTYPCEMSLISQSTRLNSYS

B1: SEQ ID NO: 497 (Fc fusion)
chain: [human IgG1 Fc not given here]GGGGSGGGGSGGGGSQLYSALANKCCHVGCTKRSLARFCGGGGSGGGGSGGGGSSWMEEVIKLCGRELVRAQIAICGMSTWS
B2: SEQ ID NO: 359 (Fc fusion)
chain: [human IgG1 Fc with changes not given here]GGSDSWKEEVIKLCGRELVRAQIAICGKSTASDAAGANANAGARQLYSALANKCCHVGCTKRSLAQFC
B3: SEQ ID NO: 360 (Fc fusion)
chain: [human IgG1 Fc with changes not given here]GGSDSWKEEVIKLCGRELVRAQIAICGKSTASDAAGANANAGARQLYSALANKCCHVGCTKRSLAEFC
B4: SEQ ID NO: 302 (Fc fusion)
chain: [human IgG1 Fc with changes not given here]GGSDSWMEEVIKLCGRELVRAQIAICGKSTGGGEGGGEGGGEGRQLYSALANKCCHVGCTKRSLARFC
B5: SEQ ID NO: 300 (Fc fusion)
chain: [human IgG1 Fc with changes not given here]GGSDSWKEEVIKLCGRELVRAQIAICGKSTGGGEGGGEGGGEGRQLYSALANKCCHVGCTKRSLARFC
B6: SEQ ID NO: 303 (Fc fusion)
chain: [human IgG1 Fc with changes not given here]GGSDSWQEEVIKLCGRELVRAQIAICGKSTGGGEGGGEGGGEGRQLYSALANKCCHVGCTKRSLARFC
B7: SEQ ID NO: 301 (Fc fusion)
chain: [human IgG1 Fc with changes not given here]GGSDSWKEEVIKLCGRELVRAQIAICGKSTGGGEGGGEGGGEGGGQLYSALANKCCHVGCTKRSLARFC
B8: SEQ ID NO: 306 (Fc fusion)
chain: [human IgG1 Fc with changes not given here]GGSDSWQEEVIKLCGRELVRAQIAICGKSTGGGEGGGEGGGEGGGQLYSALANKCCHVGCTKRSLARFC
B9: SEQ ID NO: 305 (Fc fusion)
chain: [human IgG1 Fc with changes not given here]GGSDSWMEEVIKLCGRELVRAQIAICGKSTGGGEGGGEGGGEGGGQLYSALANKCCHVGCTKRSLARFC

These binders were tested against T1, rat RXFP1 (assay: cell-based or functional assay).

fold in vitro potency against SEQ ID NO: 87, rat RXFP1 signaling assay | Binder
> 30 fold | B1

Each binder was assayed against T2, human RXFP1 (assay: cell-based or functional assay).

Potency (cAMP, transient hRXFP1 in HEK293) | Binder
0.3 nM | B1

Biological target: T2, human RXFP1
Assay: cell-based or functional assay
Remark: another data set of the same source

EC50, cAMP response in RXFP1 transfected HEK293 cells | pEC50, cAMP response in RXFP1 transfected HEK293 cells | Binder
0.42 nM | 9.37 | B2
1.46 nM | 8.84 | B3
2.41 nM | 8.62 | B4
2.17 nM | 8.66 | B5
1.9 nM | 8.72 | B6
7.87 nM | 8.1 | B7
17.7 nM | 7.75 | B8
14.7 nM | 7.83 | B9

Biological target: T1, rat RXFP1
Assay: cell-based or functional assay
Remark: another data set of the same source

EC50 for cAMP generation, recombinant rat RXFP1 assay (average) | Binder
1 nM | B1

Biological target: T2, human RXFP1
Assay: cell-based or functional assay
Remark: another data set of the same source

EC50 for cAMP generation, recombinant human RXFP1 assay (average) | Binder
0.3 nM | B1

Biological target: T1, rat RXFP1
Assay: cell-based or functional assay
Remark: another data set of the same source

Transient HEK293 rRXFP1 cAMP EC50 | Binder
0.95 nM | B1
